Consider 13 sequences from article PMC5700166.

The entries are a selection whose mix differs from that of the whole data set. The list includes weakly bound sequences.

Holding throughout (experiment): protein-binding microarray (PBM)
Holding throughout (details): PBM: ~300 nM protein, 6 mM HEPES pH 7.8, 80 mM KCl, 0.5 mM EDTA, 0.5 mM EGTA, 6% glycerol, 35 ng/ul poly-dIdC, 1% milk, 1 h, room temperature; Ap Aiptasia and Nv Nematostella (sea anemones) / Co Capsaspora / Aq Amphimedon (sponge) / Dm Drosophila / Hu human; RHD is the Rel homology domain; high values mean tight binding; most listed sequences are background and not binding sites; double strand, one strand shown

One test addresses T1, GST-Ap-NF-kB RHD (UniProt A0A913YAJ5).
T1 sequence: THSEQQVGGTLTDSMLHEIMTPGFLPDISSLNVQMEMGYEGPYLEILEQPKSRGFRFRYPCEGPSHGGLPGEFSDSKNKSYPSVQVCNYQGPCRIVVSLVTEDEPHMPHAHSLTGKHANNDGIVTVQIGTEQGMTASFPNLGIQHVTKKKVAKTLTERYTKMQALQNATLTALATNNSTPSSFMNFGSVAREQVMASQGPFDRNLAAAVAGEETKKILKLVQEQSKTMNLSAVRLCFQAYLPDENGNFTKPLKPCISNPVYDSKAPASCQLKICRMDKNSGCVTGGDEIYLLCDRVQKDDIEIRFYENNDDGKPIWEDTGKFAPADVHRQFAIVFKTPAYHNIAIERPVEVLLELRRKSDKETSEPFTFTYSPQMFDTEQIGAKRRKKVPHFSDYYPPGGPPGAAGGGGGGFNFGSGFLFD

For test [1], the target named is T2, GST-Nv-NF-kB (Cys allele) (UniProt E5G601).
T2 sequence: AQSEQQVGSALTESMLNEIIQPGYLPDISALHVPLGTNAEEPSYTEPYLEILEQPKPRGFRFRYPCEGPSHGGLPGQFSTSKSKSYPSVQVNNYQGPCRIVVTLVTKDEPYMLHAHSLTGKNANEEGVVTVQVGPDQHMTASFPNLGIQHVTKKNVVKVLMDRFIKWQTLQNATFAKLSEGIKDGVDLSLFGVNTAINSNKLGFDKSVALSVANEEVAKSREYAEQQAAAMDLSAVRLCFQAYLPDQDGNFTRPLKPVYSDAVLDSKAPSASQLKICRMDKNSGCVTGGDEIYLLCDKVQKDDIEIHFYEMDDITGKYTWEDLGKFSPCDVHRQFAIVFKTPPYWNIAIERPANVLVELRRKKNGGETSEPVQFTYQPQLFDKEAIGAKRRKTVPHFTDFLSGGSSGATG

A further test deals with T3, GST-Co-NF-kB (UniProt F1ARL5).
T3 sequence: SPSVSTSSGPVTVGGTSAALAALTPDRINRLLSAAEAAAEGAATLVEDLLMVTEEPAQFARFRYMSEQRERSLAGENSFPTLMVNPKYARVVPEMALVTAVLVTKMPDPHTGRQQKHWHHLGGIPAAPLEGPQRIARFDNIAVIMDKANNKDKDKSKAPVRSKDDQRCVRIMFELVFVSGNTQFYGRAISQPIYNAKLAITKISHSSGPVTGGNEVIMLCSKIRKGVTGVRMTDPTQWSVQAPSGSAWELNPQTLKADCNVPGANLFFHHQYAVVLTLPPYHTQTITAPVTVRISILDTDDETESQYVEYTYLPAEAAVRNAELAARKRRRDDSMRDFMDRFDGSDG

The next test has as its target T4, GST-Dm-Relish (UniProt Q94527).
T4 sequence: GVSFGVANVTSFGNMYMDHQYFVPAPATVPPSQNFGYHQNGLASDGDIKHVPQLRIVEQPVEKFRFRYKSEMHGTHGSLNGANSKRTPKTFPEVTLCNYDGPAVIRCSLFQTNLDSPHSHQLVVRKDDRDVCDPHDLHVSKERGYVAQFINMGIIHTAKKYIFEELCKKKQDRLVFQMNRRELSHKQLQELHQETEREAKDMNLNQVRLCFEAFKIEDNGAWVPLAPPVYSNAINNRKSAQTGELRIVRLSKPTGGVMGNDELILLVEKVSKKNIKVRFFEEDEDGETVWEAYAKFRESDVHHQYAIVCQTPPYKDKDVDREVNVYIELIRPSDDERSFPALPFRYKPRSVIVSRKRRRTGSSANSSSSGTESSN

Another test addresses T5, GST-Aq-NF-kB (UniProt A9Y5G7).
T5 sequence: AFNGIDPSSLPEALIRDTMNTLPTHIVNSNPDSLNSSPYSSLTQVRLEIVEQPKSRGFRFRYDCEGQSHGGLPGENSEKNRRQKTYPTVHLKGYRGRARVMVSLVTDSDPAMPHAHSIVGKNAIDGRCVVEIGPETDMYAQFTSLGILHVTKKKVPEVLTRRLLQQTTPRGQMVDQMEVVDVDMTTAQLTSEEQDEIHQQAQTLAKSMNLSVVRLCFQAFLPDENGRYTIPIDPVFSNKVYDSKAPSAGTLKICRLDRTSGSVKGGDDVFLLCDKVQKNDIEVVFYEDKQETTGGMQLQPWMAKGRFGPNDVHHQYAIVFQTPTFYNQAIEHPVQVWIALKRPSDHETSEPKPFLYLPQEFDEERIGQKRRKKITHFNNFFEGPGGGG

For “CCGATTAACATCAGGAAAGTTCCTGATGTTAATCGGGTCTTGATTCGCTTGACGCTGCTG”, the binding signal with GST-Ap-NF-kB RHD was -0.179 z-score; in test [1], 0.27 z-score; in the test with GST-Co-NF-kB, -0.572 z-score; with GST-Dm-Relish, 0.922 z-score; with GST-Aq-NF-kB, 1.9 z-score.

Take “CCGATTAACATCAGGAAATTCGATGATGTTAATCGGGTCTTGATTCGCTTGACGCTGCTG”: the binding signal with GST-Ap-NF-kB RHD is -0.0132 z-score; in test [1], -0.2 z-score; with GST-Co-NF-kB, 0.168 z-score; in the test with GST-Dm-Relish, -0.141 z-score; with GST-Aq-NF-kB, 0.18 z-score.

As to “CCGATTAACATCAGATATTTCGATGATGTTAATCGGGTCTTGATTCGCTTGACGCTGCTG”, the binding signal was -0.44 z-score with GST-Ap-NF-kB RHD; -0.67 z-score in test [1]; -0.2 z-score with GST-Co-NF-kB; -0.668 z-score in the test with GST-Dm-Relish; -0.498 z-score in the test with GST-Aq-NF-kB.

For the sequence “CCGATTAACATCACGGAAAAACCTGATGTTAATCGGGTCTTGATTCGCTTGACGCTGCTG”, the binding signal is 0.504 z-score in the test with GST-Ap-NF-kB RHD; 0.151 z-score in test [1]; 0.299 z-score with GST-Co-NF-kB; 2.16 z-score in the test with GST-Dm-Relish; 3.55 z-score in the test with GST-Aq-NF-kB.

With “CCGATTAACATCAGTCATTAAGATGATGTTAATCGGGTCTTGATTCGCTTGACGCTGCTG”, the binding signal was -0.896 z-score with GST-Ap-NF-kB RHD; 0.0111 z-score in test [1]; -0.402 z-score in the test with GST-Co-NF-kB; -0.625 z-score in the test with GST-Dm-Relish; -0.291 z-score with GST-Aq-NF-kB.

“CCGATTAACATCAATTCTAGTGGTGATGTTAATCGGGTCTTGATTCGCTTGACGCTGCTG”: the binding signal is 0.334 z-score with GST-Ap-NF-kB RHD; -0.265 z-score in test [1]; 0.767 z-score in the test with GST-Co-NF-kB; 0.153 z-score with GST-Dm-Relish; -0.402 z-score with GST-Aq-NF-kB.

In the case of “CCGATTAACATCAATGTGCCCGTTGATGTTAATCGGGTCTTGATTCGCTTGACGCTGCTG”, the binding signal with GST-Ap-NF-kB RHD was -0.436 z-score; in test [1], -0.709 z-score; in the test with GST-Co-NF-kB, -0.412 z-score; with GST-Dm-Relish, -0.393 z-score; with GST-Aq-NF-kB, -0.125 z-score.

In the case of “CCGATTAACATCACAGTGATAGTTGATGTTAATCGGGTCTTGATTCGCTTGACGCTGCTG”, the binding signal is -0.473 z-score in the test with GST-Ap-NF-kB RHD; -0.251 z-score in test [1]; -0.00438 z-score with GST-Co-NF-kB; 0.00686 z-score with GST-Dm-Relish; -0.298 z-score with GST-Aq-NF-kB.

In the case of “CCGATTAACATCAACGCCACTACTGATGTTAATCGGGTCTTGATTCGCTTGACGCTGCTG”, the binding signal with GST-Ap-NF-kB RHD was 0.0307 z-score; in test [1], -0.665 z-score; with GST-Co-NF-kB it was -0.239 z-score; with GST-Dm-Relish, -0.83 z-score; with GST-Aq-NF-kB, -0.503 z-score.

For “CCGATTAACATCAACGGATTTTCTGATGTTAATCGGGTCTTGATTCGCTTGACGCTGCTG”, the binding signal with GST-Ap-NF-kB RHD worked out at 0.226 z-score; in test [1], 0.117 z-score; with GST-Co-NF-kB, 0.248 z-score; with GST-Dm-Relish, 0.424 z-score; with GST-Aq-NF-kB it was 0.478 z-score.

With “CCGATTAACATCAAATTCTTTCCTGATGTTAATCGGGTCTTGATTCGCTTGACGCTGCTG”, the binding signal with GST-Ap-NF-kB RHD is -0.34 z-score; in test [1], 0.323 z-score; with GST-Co-NF-kB it was 0.171 z-score; with GST-Dm-Relish it was 0.589 z-score; with GST-Aq-NF-kB, 0.141 z-score.

Turning to “CCGATTAACATCATGCTTAATGATGATGTTAATCGGGTCTTGATTCGCTTGACGCTGCTG”, the binding signal with GST-Ap-NF-kB RHD is -0.673 z-score; in test [1], -0.973 z-score; with GST-Co-NF-kB, -1.03 z-score; in the test with GST-Dm-Relish, -0.826 z-score; in the test with GST-Aq-NF-kB, -0.596 z-score.

For “CCGATTAACATCAAATTTCCAGATGATGTTAATCGGGTCTTGATTCGCTTGACGCTGCTG”, the binding signal with GST-Ap-NF-kB RHD is 0.0689 z-score; in test [1], -0.31 z-score; in the test with GST-Co-NF-kB, -0.0373 z-score; in the test with GST-Dm-Relish, 0.276 z-score; in the test with GST-Aq-NF-kB, 0.633 z-score.
